According to article PMC9231623:
Residue numbers refer to the chain shown, from its start. No constants are given. Whether binding was seen depends on the method and setting. In cells and extracts the contact can be indirect. Some entries that bind do so weakly or less than the wild type. For part of these data: Sequences can lack the tags named with a protein.

By UniProt entry, the sequences of proteins in these tests, tags left out. Residues count along the entry.
UniProt Q13596: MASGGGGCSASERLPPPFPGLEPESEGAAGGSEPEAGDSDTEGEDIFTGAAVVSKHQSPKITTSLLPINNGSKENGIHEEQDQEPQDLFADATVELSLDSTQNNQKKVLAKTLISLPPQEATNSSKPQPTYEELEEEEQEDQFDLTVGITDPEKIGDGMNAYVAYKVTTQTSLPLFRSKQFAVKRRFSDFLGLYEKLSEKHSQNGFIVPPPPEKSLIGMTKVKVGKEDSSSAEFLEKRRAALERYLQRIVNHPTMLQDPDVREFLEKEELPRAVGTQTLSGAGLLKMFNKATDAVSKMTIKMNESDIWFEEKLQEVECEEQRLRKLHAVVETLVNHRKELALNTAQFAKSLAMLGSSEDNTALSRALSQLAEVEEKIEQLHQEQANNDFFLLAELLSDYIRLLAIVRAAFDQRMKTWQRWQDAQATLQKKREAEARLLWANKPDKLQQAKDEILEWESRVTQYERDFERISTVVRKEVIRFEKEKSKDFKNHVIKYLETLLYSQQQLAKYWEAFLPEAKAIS
UniProt O14786, residues 22-923: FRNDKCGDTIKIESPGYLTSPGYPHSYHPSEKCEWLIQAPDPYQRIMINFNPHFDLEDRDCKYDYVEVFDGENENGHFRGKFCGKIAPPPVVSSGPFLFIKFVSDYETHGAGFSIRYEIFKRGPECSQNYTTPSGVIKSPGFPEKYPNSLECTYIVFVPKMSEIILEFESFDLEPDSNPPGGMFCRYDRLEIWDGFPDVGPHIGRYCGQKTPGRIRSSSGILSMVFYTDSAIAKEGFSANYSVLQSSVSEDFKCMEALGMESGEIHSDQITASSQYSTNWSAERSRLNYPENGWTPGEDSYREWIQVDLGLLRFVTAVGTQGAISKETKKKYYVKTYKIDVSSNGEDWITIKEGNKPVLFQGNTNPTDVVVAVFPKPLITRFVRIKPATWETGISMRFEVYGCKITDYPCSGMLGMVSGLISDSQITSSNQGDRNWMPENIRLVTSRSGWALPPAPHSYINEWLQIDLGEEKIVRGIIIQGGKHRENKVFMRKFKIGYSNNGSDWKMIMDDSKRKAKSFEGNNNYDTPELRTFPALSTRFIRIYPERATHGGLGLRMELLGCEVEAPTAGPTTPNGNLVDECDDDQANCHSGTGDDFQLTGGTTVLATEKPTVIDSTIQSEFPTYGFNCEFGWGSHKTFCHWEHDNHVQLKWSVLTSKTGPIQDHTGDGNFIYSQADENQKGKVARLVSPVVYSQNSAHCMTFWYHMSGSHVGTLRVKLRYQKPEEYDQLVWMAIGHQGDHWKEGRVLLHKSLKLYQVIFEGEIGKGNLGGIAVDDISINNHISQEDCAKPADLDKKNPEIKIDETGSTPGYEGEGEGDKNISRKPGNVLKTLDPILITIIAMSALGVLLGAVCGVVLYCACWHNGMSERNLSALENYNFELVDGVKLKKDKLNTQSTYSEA
UniProt P11717, residues 41-2491: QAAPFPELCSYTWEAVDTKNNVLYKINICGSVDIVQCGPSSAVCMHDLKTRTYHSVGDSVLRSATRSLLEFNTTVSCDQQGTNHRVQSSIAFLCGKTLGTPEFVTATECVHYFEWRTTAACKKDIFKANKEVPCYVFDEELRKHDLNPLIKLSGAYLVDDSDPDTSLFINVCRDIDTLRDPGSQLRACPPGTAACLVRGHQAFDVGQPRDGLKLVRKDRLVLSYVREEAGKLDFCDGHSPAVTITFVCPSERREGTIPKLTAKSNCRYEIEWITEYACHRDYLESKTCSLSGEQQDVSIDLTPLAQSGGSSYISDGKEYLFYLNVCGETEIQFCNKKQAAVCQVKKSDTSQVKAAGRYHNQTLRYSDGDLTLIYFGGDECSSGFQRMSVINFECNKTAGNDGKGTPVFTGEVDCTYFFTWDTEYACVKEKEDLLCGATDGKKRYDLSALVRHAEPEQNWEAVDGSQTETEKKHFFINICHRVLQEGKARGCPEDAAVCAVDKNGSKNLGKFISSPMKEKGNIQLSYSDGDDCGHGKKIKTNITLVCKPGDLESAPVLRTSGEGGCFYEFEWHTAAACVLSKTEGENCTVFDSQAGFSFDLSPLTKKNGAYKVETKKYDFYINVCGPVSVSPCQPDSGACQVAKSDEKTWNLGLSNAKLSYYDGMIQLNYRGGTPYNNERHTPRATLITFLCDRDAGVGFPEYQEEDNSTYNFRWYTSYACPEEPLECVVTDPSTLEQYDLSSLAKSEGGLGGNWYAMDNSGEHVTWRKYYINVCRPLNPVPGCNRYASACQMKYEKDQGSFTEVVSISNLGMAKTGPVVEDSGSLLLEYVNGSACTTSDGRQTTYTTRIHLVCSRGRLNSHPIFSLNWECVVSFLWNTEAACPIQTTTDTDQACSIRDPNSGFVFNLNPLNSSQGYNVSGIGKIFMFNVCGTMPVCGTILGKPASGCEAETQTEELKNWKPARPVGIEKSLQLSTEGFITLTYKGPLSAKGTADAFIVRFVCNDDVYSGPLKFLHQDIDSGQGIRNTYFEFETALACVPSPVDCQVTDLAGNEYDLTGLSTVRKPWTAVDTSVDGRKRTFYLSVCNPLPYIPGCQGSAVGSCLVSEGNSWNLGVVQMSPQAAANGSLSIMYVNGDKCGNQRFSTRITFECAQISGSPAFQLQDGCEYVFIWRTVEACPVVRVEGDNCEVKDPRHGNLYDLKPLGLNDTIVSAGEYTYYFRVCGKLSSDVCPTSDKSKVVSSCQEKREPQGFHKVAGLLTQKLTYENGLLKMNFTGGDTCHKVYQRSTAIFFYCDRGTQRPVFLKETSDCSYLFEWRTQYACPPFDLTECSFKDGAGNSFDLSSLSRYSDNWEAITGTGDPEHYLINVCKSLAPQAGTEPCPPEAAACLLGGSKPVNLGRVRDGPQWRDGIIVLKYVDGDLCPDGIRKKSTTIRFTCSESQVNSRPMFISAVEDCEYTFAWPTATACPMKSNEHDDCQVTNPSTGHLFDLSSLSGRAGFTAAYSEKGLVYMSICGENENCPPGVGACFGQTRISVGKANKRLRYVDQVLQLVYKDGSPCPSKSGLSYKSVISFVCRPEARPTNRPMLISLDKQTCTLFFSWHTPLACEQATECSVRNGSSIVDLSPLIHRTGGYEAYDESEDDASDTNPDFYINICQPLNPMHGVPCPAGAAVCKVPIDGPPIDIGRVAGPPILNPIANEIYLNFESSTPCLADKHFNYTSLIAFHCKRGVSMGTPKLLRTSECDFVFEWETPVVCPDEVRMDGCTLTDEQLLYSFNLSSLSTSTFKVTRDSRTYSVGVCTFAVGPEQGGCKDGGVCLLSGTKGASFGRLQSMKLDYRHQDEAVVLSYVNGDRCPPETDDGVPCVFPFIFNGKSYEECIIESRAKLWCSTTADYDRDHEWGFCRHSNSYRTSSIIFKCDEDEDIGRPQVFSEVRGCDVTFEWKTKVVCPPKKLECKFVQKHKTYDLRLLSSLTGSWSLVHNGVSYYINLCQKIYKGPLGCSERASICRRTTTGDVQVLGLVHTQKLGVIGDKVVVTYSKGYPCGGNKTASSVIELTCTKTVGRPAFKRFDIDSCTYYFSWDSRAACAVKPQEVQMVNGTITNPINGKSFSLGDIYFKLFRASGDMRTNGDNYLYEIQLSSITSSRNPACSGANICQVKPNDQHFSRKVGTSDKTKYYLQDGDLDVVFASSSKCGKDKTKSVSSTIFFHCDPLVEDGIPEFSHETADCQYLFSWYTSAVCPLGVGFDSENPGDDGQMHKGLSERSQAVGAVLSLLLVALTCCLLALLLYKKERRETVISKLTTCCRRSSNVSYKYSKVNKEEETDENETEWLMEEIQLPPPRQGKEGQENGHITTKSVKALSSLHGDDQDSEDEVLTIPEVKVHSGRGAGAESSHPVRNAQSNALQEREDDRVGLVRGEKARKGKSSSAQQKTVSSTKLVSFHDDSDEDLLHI

Columns and labels:
[1] = target: T1, GFP-tagged SNX6 (UniProt Q9UNH7); experiment: co-IP
T1 sequence: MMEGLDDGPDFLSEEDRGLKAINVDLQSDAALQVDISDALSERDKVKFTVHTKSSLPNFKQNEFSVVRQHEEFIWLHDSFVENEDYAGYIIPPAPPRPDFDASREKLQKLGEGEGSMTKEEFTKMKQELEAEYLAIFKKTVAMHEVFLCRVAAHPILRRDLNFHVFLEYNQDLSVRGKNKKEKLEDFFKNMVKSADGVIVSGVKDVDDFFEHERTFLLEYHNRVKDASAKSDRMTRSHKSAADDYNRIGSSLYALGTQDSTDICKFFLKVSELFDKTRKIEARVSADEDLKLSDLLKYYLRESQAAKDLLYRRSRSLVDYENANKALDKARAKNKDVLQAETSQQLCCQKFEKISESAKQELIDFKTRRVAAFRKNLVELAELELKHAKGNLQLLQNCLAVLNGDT

[2] = target: T2, GFP-tagged SNX5 (UniProt Q9Y5X3); experiment: co-IP
T2 sequence: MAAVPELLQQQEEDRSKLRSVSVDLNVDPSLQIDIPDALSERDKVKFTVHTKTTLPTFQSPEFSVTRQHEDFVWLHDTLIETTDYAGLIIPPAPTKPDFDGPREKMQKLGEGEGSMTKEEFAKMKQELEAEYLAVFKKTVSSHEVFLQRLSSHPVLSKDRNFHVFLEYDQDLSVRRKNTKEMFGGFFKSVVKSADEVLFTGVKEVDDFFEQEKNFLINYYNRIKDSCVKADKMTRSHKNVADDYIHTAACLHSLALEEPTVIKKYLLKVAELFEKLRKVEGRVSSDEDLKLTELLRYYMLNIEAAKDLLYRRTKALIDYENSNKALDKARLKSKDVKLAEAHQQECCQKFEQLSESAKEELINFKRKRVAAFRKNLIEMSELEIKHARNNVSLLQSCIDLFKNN

[3] = target: T1, GFP-tagged SNX6; experiment: co-IP; GFP-nanotrap (GFP trap, ChromoTek) of lysates of HEK293T cells 48 h after transfection; 50 mM Tris-HCl, 0.5% Nonidet P-40, protease inhibitors; quantitative Western blot
[4] = target: GFP-tagged SNX1 (UniProt Q13596); experiment: as above
[5] = target: T2, GFP-tagged SNX5; experiment: as above
[6] = target: T3, GFP-tagged SNX2 (UniProt O60749); experiment: as above
T3 sequence: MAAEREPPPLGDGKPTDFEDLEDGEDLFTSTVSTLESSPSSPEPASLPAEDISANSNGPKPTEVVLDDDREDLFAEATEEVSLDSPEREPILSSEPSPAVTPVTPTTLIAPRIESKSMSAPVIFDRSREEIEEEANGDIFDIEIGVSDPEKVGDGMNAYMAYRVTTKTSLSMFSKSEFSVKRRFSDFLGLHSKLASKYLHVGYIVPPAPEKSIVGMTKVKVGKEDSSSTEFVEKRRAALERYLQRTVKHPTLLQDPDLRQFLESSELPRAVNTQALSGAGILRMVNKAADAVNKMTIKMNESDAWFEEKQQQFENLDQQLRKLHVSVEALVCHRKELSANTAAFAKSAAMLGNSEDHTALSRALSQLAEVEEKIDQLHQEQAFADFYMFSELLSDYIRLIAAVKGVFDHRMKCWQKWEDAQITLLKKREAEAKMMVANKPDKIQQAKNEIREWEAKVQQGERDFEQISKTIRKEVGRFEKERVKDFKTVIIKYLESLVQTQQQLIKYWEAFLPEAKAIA

[7] = target: T4, GFP-tagged SNX32 (UniProt Q86XE0); experiment: as above
T4 sequence: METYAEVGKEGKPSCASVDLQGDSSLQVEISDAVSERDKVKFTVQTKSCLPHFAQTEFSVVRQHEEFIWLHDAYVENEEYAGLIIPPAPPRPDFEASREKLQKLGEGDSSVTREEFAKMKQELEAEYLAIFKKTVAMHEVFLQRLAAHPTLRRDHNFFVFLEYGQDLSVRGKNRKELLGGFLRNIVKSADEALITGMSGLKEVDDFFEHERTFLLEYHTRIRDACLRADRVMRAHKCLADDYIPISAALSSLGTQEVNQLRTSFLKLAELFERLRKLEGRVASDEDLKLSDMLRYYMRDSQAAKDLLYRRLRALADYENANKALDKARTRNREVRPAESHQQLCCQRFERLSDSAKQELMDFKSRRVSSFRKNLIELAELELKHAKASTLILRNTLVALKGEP

[8] = target: T5, GFP-tagged SNX5 F136D mutant (UniProt Q9Y5X3); experiment: as above
T5 sequence: T2 sequence with F136D

binding [1]	binding [2]	binding [3]	binding [4]	binding [5]	binding [6]	binding [7]	binding [8]	Substance
binds	binds	binds	no binding	binds	no binding	binds	no binding	endogenous Neuropilin-1 (NRP1) (from UniProt O14786 22-923) (receptor)
		binds		binds	no binding	binds		cation-independent mannose 6-phosphate receptor (CI-MPR), endogenous (from UniProt P11717 41-2491)
